Laboratory results taken from PMC12136788.
The other results are listed elsewhere or left out.

T1: UNK ZnF1-3 (human, UniProt Q9C0B0 31-174)
T1 sequence: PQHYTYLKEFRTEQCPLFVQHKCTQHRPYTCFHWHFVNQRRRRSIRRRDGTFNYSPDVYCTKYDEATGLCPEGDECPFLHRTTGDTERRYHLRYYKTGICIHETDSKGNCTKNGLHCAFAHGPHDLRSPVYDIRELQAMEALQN

B1: chr12:114378518:114378519:+_ENSMUSG00000006356_ENSMUST00000084882|mus_mus|FALSE|FALSE (ssRNA)
RNA: GGGAGUUCUACAGUCCGACGAUCCCCGGAGUGAGGUGGCGUCCACAGGGAUCGCCCGAGGAUUCCAUGGCCACAUAGUGAUCUCUAGCUGUAGAACGGACUUGGGAUCCCCAGCUUUAGGUCUCGAGGUCCGGGCCUGCUCGUCAACAGAGGAUUGAGCAUCA
B2: chr15:59323432:59323433:+_ENSG00000157450_ENST00000557998|hu_hu|motif|central (ssRNA)
RNA: GGGAGUUCUACAGUCCGACGAUCCACAGUAUCAGAAUCUCCAAAAUGCAGACUAGAUGAAGGAGAAGAAAGACAAUCACGGAAAGAGGAAUCAUUAUCUUCAUCACUUGGUGUCCCUAGGUGUUGCCUCAGUCCUAAUAUUCCCAACAGAGGAUUGAGCAUCA
B3: 44688942_44689062_355_3pUTR_ENSMUSG00000002028_ENSMUST00000002095|mouse|control|control (ssRNA)
RNA: GGGAGUUCUACAGUCCGACGAUCCGCCUCCCCCGCCGCUCUCCCCAAACACUGCCCGGAACCGGCGCAGGUUGGUGCCGAUGGCGGCCGAGACCUGCAGCGCCGCGUCGAAGCCCGGGCCCACCCGGAGCAGGGCCGGCCCUGCAACAGAGGAUUGAGCAUCA
B4: chr4:76721835:76721836:+_ENSG00000138768_ENST00000264904|hu_mus|hu_hu_hu_mus_True|8_78 (ssRNA)
RNA: GGGAGUUCUACAGUCCGACGAUCGUUUGGCUGGGGUUUCUGAGACGCUCUGGAAUAAACUCAUGUUUUGCUAAUAAAUCCUAGUUUCUCUAUGAAAUUCUCUUUGCCAAUCCUCUUCUCUAUUAGUGUUUUAGCUUUCUCUUUCAACAGAGGAUUGAGCAUCA
B5: chr7:151048522:151048523:+_ENSG00000013374_ENST00000566856|hu_mus|hu_hu_hu_mus_True|38_108 (ssRNA)
RNA: GGGAGUUCUACAGUCCGACGAUCCUGCUUCUUAUUUAUUACGAUCUUGAUGUAAUUUUCUUGAAAUCCGAAAGUUUCAGCUAUUUGACACCUCAGGUCUCUGCCAGUGACAUGCAAGCGGGUCUCCAACAAGCUUUUCUUAUCCAACAGAGGAUUGAGCAUCA
B6: chr1:180251914:180251915:+_ENSMUSG00000026500_ENSMUST00000027781|mus_mus|motif|central (ssRNA)
RNA: GGGAGUUCUACAGUCCGACGAUCGAUCCUAAUGAGCCAUAGAGUAUAGAUUCUCGAGCACAUGGAGUGUUCUCAACAUCGGAAAUACCUAGGAGCUUGAAGGGCUUUUUCUCCGUCUCGUGGGGCUCCGGGGCGGCCGCCAUGCAACAGAGGAUUGAGCAUCA
B7: chr15:78834838:78834839:+_ENSG00000041357_ENST00000044462|hu_mus|FALSE|FALSE (ssRNA)
RNA: GGGAGUUCUACAGUCCGACGAUCAUCAAGAAGCUUGUGGAUGUUGCGCCUCUCCGCUGCAAGCAAAACUCCAUCAUUGGCUAAAAUCCCCAAACAGGUGCCUGCAUGUCCAAUGGCUUCCAUGGCAUACUCCACUUGGUAUAACAACAGAGGAUUGAGCAUCA
B8: chr1:93299114:93299115:+_ENSG00000122406_ENST00000370321|hu_hu|FALSE|FALSE (ssRNA)
RNA: GGGAGUUCUACAGUCCGACGAUCUUGUAUCACCAAGCGUUUCCGAGCAUAAUAAUCAGUUUUACCCUCUCGUCGUCUUCUAAAUUUCACUUGGUAUCUCUUAAAGUAGGCCUUAUUCUUAACAACUUUAACAAACCCCAUCCUCAACAGAGGAUUGAGCAUCA
B9: chr5:60455605:60455606:-_ENSG00000188725_ENST00000339020|hu_hu|FALSE|FALSE (ssRNA)
RNA: GGGAGUUCUACAGUCCGACGAUCAUUUACAAUAACUGUCAAUAGAAACCUAUAAACUUCUACACCCACGCCUAAAAGUUACUAUAGUAUUGAGGUCAGAACUAACAUGAUUCUUCCAUUUGGUCAAAUUUCAUUUACUAAAUCCAACAGAGGAUUGAGCAUCA
B10: chr12:82822756:82822757:-_ENSMUSG00000042724_ENSMUST00000035987|mus_hu|FALSE|FALSE (ssRNA)
RNA: GGGAGUUCUACAGUCCGACGAUCGGCUGAGGAGAGGGAGCAGCAGACAGAUUUGGCUGAGUGACUCUGCAGGGUCACUCUAAAGGCAAGGAAGACUGUGGAGGGUGGGGGACAUGCAUGCACCCCUUCCUCCCCUACACAGCCCAACAGAGGAUUGAGCAUCA
B11: chr16:57198444:57198445:-_ENSMUSG00000022749_ENSMUST00000023431|mus_hu|FALSE|FALSE (ssRNA)
RNA: GGGAGUUCUACAGUCCGACGAUCCCUAAAAGAAGCCGGUGUUUUGCUGCAAUAAUACUGAGCCAGAGAGAAAAGGUCUUCUAUAUCUUCUAUAUUCAGACUGGAUGGAGUAUUUUCCAAGAACUUGAUAACUUCUUCUUUGCUCAACAGAGGAUUGAGCAUCA
B12: chr16:45382771:45382772:-_ENSMUSG00000022661_ENSMUST00000163230|mus_mus|mus_mus_mus_hu_True|48_48 (ssRNA)
RNA: GGGAGUUCUACAGUCCGACGAUCCUGGGUCAUGUUAUAAGACAAAUGGACAGGGAGGGCAUGCUUCUCAAAAAAUGUGAGCUAUUGACUAAGACUAACAAUAUUUAUCUAGCUAUAAAAAUAAGUUAAAUGAAUAAGUUAAGACAACAGAGGAUUGAGCAUCA
B13: 25585956_25589799_587_3pUTR_ENSG00000170558_ENST00000399380|human|control|control (ssRNA)
RNA: GGGAGUUCUACAGUCCGACGAUCAAUGAAACCGGGCUAUCUGCUCGCGAUCCAGGGGCUUUGUCACCGACAGCUGACCCGAGAUGGGGUUGAUAAUGAAGAUACCAGUUGGAGGCUGGUCAGCUCCUGGCCCAGUUACACUGUCAACAGAGGAUUGAGCAUCA
B14: chr7:135612270:135612271:-_ENSG00000105887_ENST00000393085|hu_mus|hu_hu_hu_mus_False|8_88 (ssRNA)
RNA: GGGAGUUCUACAGUCCGACGAUCGUUUUUUUCUGAGAUGUUAAAUAUUCAGUGGAGGGAAAACAAAACUUAACCUUUUAUUAAUGCGUGUUGUACCAAAAGCAGACAUUUUAGCUUCAUUUAUUCACUCAAAAUAUCAUUAAGCAACAGAGGAUUGAGCAUCA
B15: chr7:23164667:23164668:+_ENSG00000122550_ENST00000322275|hu_mus|motif|central (ssRNA)
RNA: GGGAGUUCUACAGUCCGACGAUCCACAGGUUCAAUCUGGUACUGAUUUGCUGCAUCUAACAAAGACUGAACAUUGUUGCGGUUCACAGAAAUUCUAGCAGUAUAAGCAAAUUCCACCAGUUGUUCAAUAAUAUCAGGUUCAGCCAACAGAGGAUUGAGCAUCA
B16: 14041772_14041892_1692_ncRNA_ENSMUSG00000068036_ENSMUST00000124922|mouse|control|control (ssRNA)
RNA: GGGAGUUCUACAGUCCGACGAUCUCCUGACAUUGGAUCUACAUCACUUUACUAAAUGUUAAGUUCUGAGACACCUAAGUUUUACUGUCACCCAUGAGCUCCCACUCUUCUCAGAUGUCUCUGCUCAUUCCUAUAUGAAUGCUACAACAGAGGAUUGAGCAUCA
B17: chr19:41288841:41288842:-_ENSMUSG00000025016_ENSMUST00000025989|mus_mus|FALSE|FALSE (ssRNA)
RNA: GGGAGUUCUACAGUCCGACGAUCUAAAUCUCCAAAUGUUUAAUAAAAACAAGCAUCUUCUCCAUUUAACACUUCGCUUGCUAACUGUACAGUAGAUUGUAUUAUAGAGAGUGCACCUCUACUUUCAUACUGUAUCUUCUUUGGCAACAGAGGAUUGAGCAUCA
B18: 70776874_70777083_1516_CDS_ENSG00000147162_ENST00000373719|human|control|control (ssRNA)
RNA: GGGAGUUCUACAGUCCGACGAUCGCGGUAAGAAGCUAUGGCUUCUGGAAUAUUCCCUGAAUCCUUAUGAAUGGAAGCCAGAUUGCUAUGUGCAUCUGCAAAUGCAGGAUUAAUUUGGAUGGCACGCGUAUAACACUGCAAGGCCAACAGAGGAUUGAGCAUCA
B19: chr17:80203902:80203903:-_ENSG00000141551_ENST00000269361|hu_hu|FALSE|FALSE (ssRNA)
RNA: GGGAGUUCUACAGUCCGACGAUCAGUGCUGCCUUCCGAUGGGAGACGAGCAGCUACUUGCCGUGGUGUUCGAAAGGAAUGCUAUUCUGUGAGGUGGACAUGCGAGAGGUAUCUUGUCGGCCUGUGAGGUCGGACGAGGAGAUGCAACAGAGGAUUGAGCAUCA
B20: chr3:125216745:125216746:-_ENSG00000114520_ENST00000251775|hu_mus|FALSE|FALSE (ssRNA)
RNA: GGGAGUUCUACAGUCCGACGAUCGAAGAUUUUGUCUCUACAAAGGACAGGAUGUGAAGCAACCCUCAAGAGGAAGUUUUCUAAGCCCACGCGUCGUCUCUCCACAAAGUCUGGGUCCAUGUUGUCAGCAGAGAGUUUAUGCCACAACAGAGGAUUGAGCAUCA
B21: chr1:183495733:183495734:+_ENSG00000116698_ENST00000515829|hu_mus|FALSE|FALSE (ssRNA)
RNA: GGGAGUUCUACAGUCCGACGAUCGGAAGACUUCACACGGCAUGGCAAAUCUACAUUAAACACCGUACACAGUUCCUGUAAUAACUGAGUAUAGAAGCCGCUAGCUGCCUCUAGGAACAGAGAAAGGUUUGCCUGGACUUCACUCAACAGAGGAUUGAGCAUCA
B22: chr1:6238667:6238668:+_ENSMUSG00000025907_ENSMUST00000027040|mus_mus|FALSE|FALSE (ssRNA)
RNA: GGGAGUUCUACAGUCCGACGAUCCAUCAUUUCUGGACUUUGUGGAUCACUUAUAGGGUUUGGAGACGAUAAAUUUUCUUCUAUCACAAACUCAUUCACAGCAGACAUAAAGUCAGACUCAGGGCUUUCUGCUAAUGAAUCCAACAACAGAGGAUUGAGCAUCA

Each binder was assayed against T1, UNK ZnF1-3 (assay: nsRBNS (natural sequence RNA bind-n-seq); RBNS binding buffer (assumed for nsRBNS): 25 mM Tris pH 7.5, 150 mM KCl, 3 mM MgCl2, 0.01% Triton X-100, 500 ug/ml BSA, 20 U/ml SUPERase-In, 4 C; UNK is unkempt and MSI1 is Musashi-1; names of the RNAs are library labels; protein concentration not given here; high values mean tight binding).

Question: B1 was tested. Which binding signal did it give?
Answer: 0.585 enrichment R

Question: For B2, which binding signal is on record?
Answer: 1.53 enrichment R

Question: B3 was tested. Which binding signal did it give?
Answer: 0.681 enrichment R

Question: How did the binding signal turn out when B4 was run?
Answer: 0.646 enrichment R

Question: How did the binding signal turn out when B5 was run?
Answer: 0.867 enrichment R

Question: With B6 as the binder, how does the binding signal read?
Answer: 1 enrichment R

Question: How did the binding signal turn out when B7 was run?
Answer: 0.935 enrichment R

Question: With B8 as the binder, how does the binding signal read?
Answer: 1.28 enrichment R

Question: B9 was tested. Which binding signal did it give?
Answer: 0.993 enrichment R

Question: How did the binding signal turn out when B10 was run?
Answer: 0.841 enrichment R

Question: With B11 as the binder, how does the binding signal read?
Answer: 1.07 enrichment R

Question: How did the binding signal turn out when B12 was run?
Answer: 2.86 enrichment R

Question: With B13 as the binder, how does the binding signal read?
Answer: 0.713 enrichment R

Question: B14 was tested. Which binding signal did it give?
Answer: 0.835 enrichment R

Question: With B15 as the binder, how does the binding signal read?
Answer: 1.56 enrichment R

Question: For B16, which binding signal is on record?
Answer: 0.662 enrichment R

Question: For B17, which binding signal is on record?
Answer: 0.866 enrichment R

Question: For B18, which binding signal is on record?
Answer: 1.16 enrichment R

Question: How did the binding signal turn out when B19 was run?
Answer: 1.06 enrichment R

Question: Which binding signal does the source give for B20 here?
Answer: 1.42 enrichment R

Question: Which binding signal does the source give for B21 here?
Answer: 1.07 enrichment R

Question: With B22 as the binder, how does the binding signal read?
Answer: 1.18 enrichment R
